Measured values as given in PubChem BioAssay AID1508623 (National Center for Advancing Translational Sciences (NCATS), 2021).
The campaign covered roughly 48,000 compounds. About 450 (0.94%) were called active. Roughly 19% stayed inconclusive and do not appear here. Calls come from the whole dose curve; as a rule, active = well fitted inhibition curve with a large enough effect; inconclusive = small, poorly fitted or top-dose-only effect; inactive = no such curve, though single readings can be large or run the other way. The list shows a part of the results.

Experiment: Primary qHTS for Identification of Small Molecule Inhibitors of Huntingtin Promoter Activity; note: nearly all actives have a fitted effect of over 50% in size
Conditions: HEK293 HTT promoter firefly luciferase reporter (activity 0% = vehicle and -100% = no light), 24 h; series mostly up to 57.5 µM; activity change, negative = inhibition: at the top concentration
Text: Assay Provider: Russell L. Margolis M.D.
Department Neurology, Johns Hopkins University School of Medicine, Baltimore, MD
Huntington's Disease (HD) is a neurodegenerative disorder caused by a CAG repeat expansion in exon 1 of huntingtin (HTT). While there are currently no disease-modifying treatments for HD, recent efforts have focused on development of nucleotide-based therapeutics to lower HTT expression. As an alternative to siRNA or oligonucleotide methods, we hypothesized that suppression of HTT expression might be accomplished by small molecules that either (1) directly decrease HTT expression by suppressing HTT promoter activity or (2) indirectly decrease HTT expression by increasing the promoter activity of HTT-AS, the gene antisense to HTT that appears to inhibit expression of HTT.
We developed and employed a high throughput screen for modifiers of HTT and HTT-AS promoter activity using luminescent reporter HEK293 cells; of the 52,041 compounds tested, we identified 898 replicable hits. We used a rigorous stepwise approach to assess compound toxicity and the capacity of the compounds to specifically lower huntingtin protein in 5 different cell lines, including HEK293 cells, HD lymphoblastoid cells, mouse primary neurons, HD iPSCs differentiated into cortical-like neurons, and HD hESCs. We found no compounds which were able to lower huntingtin without lowering cell viability in all assays, though the potential efficacy of a few compounds at non-toxic doses could not be excluded.
SEQUENCE No. (1, 2, 3, etc.); […] (e.g., Cells, Incubation, Reagent, etc.); VALUE and DESCRIPTION.
1; Reagent; 4 uL; 2,500 Hek293 luciferase reporter cells per wells
3; Compound; 23 nL; Control inhibitor / compound library
5; Reagent; 2.5 uL; Firefly Luc reagent; Dual-Glo Luciferase Reporter Assay System (Promega)
6; Time; 10 min; room temperature incubation
7; Detection; Luminescence; FLuc
NOTES (numbers refer to sequence above)
1; High-throughput screening, measuring luminescence from a Hek293 luciferase reporter, was performed in 1,536 well white-walled tissue-culture treated plates. 2,500 cells were plated in 4 µL of Opti-MEM per well using a Multidrop Combi Reagent Dispenser (ThermoFisher).
2; Assay plates were cultured for 24 hours.
3; Control inhibitor (PTC124; final concentration of 50 uM) and compound library (at final concentrations of 460 nM - 57.5 uM) were added to the assay plate using the Kalypsis Pintool Robotic System equipped with 1536 pinheads.
4; Cells were then incubated for 24 hours at 37 degrees C prior to luminescence measurements.
5; In all cases, luminescence was measured using the Dual-Glo Luciferase Reporter Assay System (Promega) following the manufacturer's instructions.
6; Room temperature incubation.
7; Luminescence signal was obtained using the PerkinElmer ViewLux plate reader. Results were normalized to vehicle control (0% activity) and zero RLU (-100% activity).

Activity change, negative = inhibition, inactive:
COc1cccc(NS(=O)(=O)c2ccc3[nH]cc(C(=O)N(C)Cc4ccco4)c(=O)c3c2)c1 5.68%
Cn1c(=O)c2c(c3ccccc31)OC(=O)CC2c1ccccc1 (configuration not stated) -6.4%
O=c1c2ccccc2n2c(-c3cccc(F)c3)nnc2n1Cc1ccccc1 0.13%
COc1ccc(NC(=O)c2ccc3c(=O)n4nc(Nc5ccccc5C)sc4nc3c2)cc1 -21.3%
CCOC(=O)N1CCN(C(=O)c2cnn(-c3cccc(C)c3)c2-n2cccc2)CC1 -22.3%
C1=CC2C3C=CC(C3)C2C1 (configuration not stated) 11.1% [at 116 µM]
CN(C)c1ccc(-c2nc3ccccn3c2Nc2ccc3c(c2)OCCO3)cc1 41.4%
Cc1cccc(N2CCN(C(=O)c3c4c(nc5ccccc35)C(=O)N(C3CCCCC3)C4)CC2)c1C -6.7%
COc1ccc(OC)c(NC(=O)c2cc3c(=O)n4cccc(C)c4nc3n2C)c1 -5.23%
Cc1ccc(N(C)C(=O)c2noc3c2CCCCC3)cc1C -17.6%
Cc1ccc(CC(=O)NCc2nc(-c3cccc(C)c3)no2)cc1 -5.74%
Cc1cccc(C)c1OCc1cc(=O)n2ccsc2n1 -3.6%
COc1cccc(NC(=O)CSc2nnc(NC(=O)NC3CCCCC3)s2)c1 28.7%
O=C(Cn1c(=O)c2sccc2n(CC(=O)Nc2ccc(Cl)cc2Cl)c1=O)NCCc1ccccc1 -12.5%
CCCN1Cc2cccc(C(=O)Nc3ccc(OC)cc3OC)c2C1=O -14%
COc1cccc(C(=O)c2cn(CC(=O)Nc3cccc(Cl)c3C)c3nc(C)ccc3c2=O)c1 -5.91%
COCCN1C(=O)c2oc3ccc(C)cc3c(=O)c2C1c1ccc(C(=O)OC)cc1 (configuration not stated) 2.04%
CSc1ncc(C(=O)NCc2cccc(Br)c2)c(-c2ccccc2)n1 -1.8%
COc1ccc(CNS(=O)(=O)c2ccc3c(c2)C(C)(C)C(=O)N3C)cc1OC -23.2%
O=C(NCc1ccccc1F)C(=O)NCC(c1ccco1)S(=O)(=O)c1ccccc1 (configuration not stated) -24.1%
Cc1ccc(C(C)C)c(OCC(=O)Nc2ccc(-c3nc4ncccc4o3)cc2C)c1 -12.1%
COc1ccc(C(C(=O)NCc2ccccc2)N(C(=O)Cn2nnc3ccccc32)c2ccc(OC)cc2)cc1 (configuration not stated) -10.7%
O=C1CC(=O)Nc2cc(S(=O)(=O)Nc3cccc(Br)c3)ccc2N1 -11.7%
COC(=O)c1cc2sc(Cl)cc2n1Cc1nc(-c2ccccc2F)oc1C -3.37%
Cc1ccc(CCNC(=O)c2ccc(CNS(=O)(=O)c3ccc(F)cc3)cc2)cc1 6.86%
CC(=O)N1CCc2c(sc(NC(=O)CSc3ccc(C)cc3)c2-c2nc3ccccc3s2)C1 3.97%
Cc1cc(C)c2c(n1)SCC(=O)N2CC(=O)Nc1c(C)cccc1C -12.9%
Cc1cc(C)cc(NC(=O)Nc2c[nH]c(=O)[nH]c2=O)c1 -3.96%
O=C(NC1(C(F)(F)F)N=C(c2ccccc2)N(C2CCCCC2)C1=O)c1ccccc1F (configuration not stated) -43.4% [at 11.5 µM]
Cc1ccc(-c2cc(-c3coc4ccccc4c3=O)c3c(n2)-c2cc(Cl)ccc2OC3)cc1 -5.15%
COc1ccccc1NC(=O)Cn1c(SCC(=O)NCc2ccccc2)nc2ccccc21 -31.4%
Cc1cc(C)cc(NC(=O)NCC2CCN(Cc3cc(C)ccc3C)CC2)c1 -14%
CC(=O)Nc1ccc(-c2nnc3n(CC(C)C)c(=O)c4ccccc4n23)cc1 4.22%
COc1ccc(CCC(=O)NCCc2csc(-c3cccc(F)c3)n2)cc1 -22.4%
COc1ccc(NC(=O)c2oc3ccc4c(c3c2C)C(=O)CC(C)(C)O4)cc1OC 39.1%
CCNC(=O)Nc1ccc2ncc(Nc3ccc(C)cc3)nc2n1 11.7%
COc1cc2c(cc1NC(=O)C(C)Oc1ccc(Cl)cc1Cl)oc1ccccc12 (configuration not stated) -3.32%
COc1cc(-c2nnc(SCC(=O)N(C)C3CCCCC3)o2)cc(OC)c1OC -19.9%
Cc1ccc(CCNC(=O)CCCn2nc(C)c3c(C)n(-c4ccc(C)cc4)nc3c2=O)cc1 -24.1%
Cc1ccc(OCC(=O)OCc2cc(=O)n3nc(C4CCCCC4)sc3n2)cc1 -18.5%
CCN(c1ncnc2c1c(-c1ccccc1)cn2-c1ccccc1)C1CCCCC1 -4.32%
COc1ccc(N(C(=O)c2ccccc2C)S(=O)(=O)c2ccc3c(c2)n(C)c(=O)n3C)cc1 2.52%
COc1ccc(OC)c(CCNC(=O)c2sc3nc4n(c(=O)c3c2C)CCCC4)c1 0.731%
CCOc1ccccc1NS(=O)(=O)c1c(C(=O)OC)sc2cccc(F)c12 0%
CCNc1c(NC(=O)c2ccccc2OCC)c(=O)oc2ccccc12 -8.59%
CCOC(=O)C1=C(CNCc2ccccc2)NC(=O)NC1c1ccc(C)cc1 (configuration not stated) -13.7%
Cc1ccc(N2C(=O)[C@@H]3CSC(c4ccc(C(F)(F)F)cc4)N3C2=O)cc1 (some centres not stated) -3.84%
Cc1ccc(S(=O)(=O)N2CCCc3cc(NC(=O)c4ccc(C(F)(F)F)cc4)ccc32)cc1 -34.3%
O=C(Nc1ccc(F)cc1)c1cccc(N2CCCS2(=O)=O)c1 9.68%
Cc1cc(=O)n(C(C)C(=O)NCc2ccccc2Cl)c2c1c(C)nn2-c1ccccc1 (configuration not stated) -6.06%
Cc1ccc(C(C)C)c(OCC(=O)Nc2c(C(=O)c3ccc(F)cc3)oc3ccccc23)c1 14.2%
Cc1cc(O)c(C(c2ccccc2Cl)N2CCCCC2)c(=O)n1Cc1ccco1 (configuration not stated) -3.49%
CCc1ccc(C2N3CC4(C)CN2CC(c2ccccc2)(C3)C4=O)cc1 (configuration not stated) -12.2%
CCOC(=O)N1CCN([N+]([O-])=NOc2ccc([N+](=O)[O-])cc2C#N)CC1 -22.4%
CCn1cc(C(=O)NCc2ccccc2)c(=O)c2cc(S(=O)(=O)N3CCOCC3)ccc21 -14.5%
Cc1ccc(/C=C/c2onc(C)c2S(=O)(=O)N2CCC(C(=O)NCc3ccc(Cl)cc3)CC2)cc1 -5.5%
CC(NC(=O)c1ccc(N2Cc3ccccc3Oc3ncccc32)s1)c1ccccc1 (configuration not stated) -18.6%
CC(C)CCCC(C)N (configuration not stated) 16.9%
CCOC(=O)C(C)NC(=O)c1cc2c(=O)[nH]c3ccc(C)cc3c2s1 (configuration not stated) -13.8%
Cc1c(Cl)cccc1NC(=O)C(=O)NCCc1csc(-c2cccc(F)c2)n1 -12.8%
COc1ccc(NC(=O)c2ccc(-c3cccc(Cl)c3C)o2)cc1 -0.479%
COc1ccc(-c2nc(CSc3nc4ncccc4[nH]3)c(C)o2)cc1OC -22.7%
CC(NC(=O)Cc1ccc(NC(=O)N2CCCCc3ccccc32)cc1)c1ccccc1 (configuration not stated) -26.3%
CCOc1cccc2sc(NC(=O)c3ccc(S(=O)(=O)N4CCc5ccccc54)cc3)nc12 -21.9%
CCc1cccc(C)c1NC(=O)C(CC)Sc1nc2ccncc2[nH]1 (configuration not stated) -21.5%
CCCN1CCN(CC2=C(C(=O)OCC)C(c3cccc(OC)c3OC)NC(=O)N2)CC1 (configuration not stated) 3.95%
CCCCc1nn2c(=O)cc(COC(=O)c3ccc(NC(=O)c4cccc(OC)c4)cc3)nc2s1 -23%
CSc1ncc(C(=O)NCc2ccccc2Cl)c(C(F)(F)F)n1 -7.35%
Cc1ccc(NC(=O)N2CCc3c(sc4c3CCCC4)C2c2ccccc2)cc1F (configuration not stated) -19.4%
CCOC(=O)CSc1nc2cc3c(cc2c(=O)n1CCCCCC(=O)NCc1ccc2c(c1)OCO2)OCO3 -3.01%
Cc1cc(C)cc(NC(=O)N2CCN(C)c3ncccc32)c1 -3.83%
Cc1ccc2c(CC(=O)Nc3ccc(S(=O)(=O)Nc4nc(C)cc(C)n4)cc3)coc2c1 -29.7%
COc1cc(C2Nc3ccccc3-c3nnc(SCc4ccc(Cl)cc4)nc3O2)ccc1OCC(=O)O (configuration not stated) -3.49% [at 11.5 µM]
CCOc1ccc(CNC(=O)CN2C(=O)CSc3ccc(S(=O)(=O)N4CCOCC4)cc32)cc1OC -13%
CN(C)CCOC(c1ccccc1)c1ccc(Br)cc1 (configuration not stated) -10.7%
Cn1c(=O)cc(OCC(=O)N2CCN(c3ccccc3F)CC2)c2ccccc21 -4.03%
Cc1cc2oc(C(=O)N(Cc3ccc(N(C)C)cc3)CC3CCCO3)c(C)c2cc1C (configuration not stated) -18.6%
O=C(CCCCn1c(=O)c2ccccc2n(Cc2ccccc2F)c1=O)NCc1ccc2c(c1)OCO2 -10.8%
O=C(NCc1ccc(Cl)cc1)C1(c2cccs2)CCOCC1 -15.2%
COc1ccc(-c2noc(-c3cc(C(C)C)[nH]n3)n2)cc1 46.3%
CCN1CCc2c(sc(NC(=O)CSc3ccccc3)c2-c2nc3ccccc3s2)C1 -27.5%
COC(=O)C1=C(C)NC(C)=C(C(=O)OCCCN2CCC(c3ccccc3)(c3ccccc3)CC2)C1c1cccc([N+](=O)[O-])c1 (configuration not stated) -7.23%
CC(=O)c1cccc(Nc2cc(C)nc3nc(-c4ccccc4C)nn23)c1 0.627%
Cc1ccc(CNC(=O)C2CCCN(c3nc4c(C)cc(C)cc4s3)C2)cc1 (configuration not stated) 14.7%
COC(=O)c1ccccc1NC(=O)CCn1nc(C)c2c(C)n(-c3ccccc3)nc2c1=O -3.29%
O=C(Nc1ccc(NC(=O)c2cccs2)cc1)c1ccc(Cl)cc1 -0.584%
O=C(COc1ccccc1)NCCc1csc(-c2ccc(F)cc2)n1 -19.1%
CC1(c2ccccc2)OC(C(=O)O)=CC1=O (configuration not stated) 2.36%
CN(C(=O)Cn1c(=O)n(Cc2ccc(C(=O)NCc3ccc4c(c3)OCO4)cc2)c(=O)c2ccccc21)c1ccccc1 -21.9%
Cc1cccc(C)c1NC(=O)CN(CC(=O)O)CC(=O)O 18.2%
COc1ccc(CNC(=O)CCc2nc3cccnc3n2Cc2ccc(OC)cc2)cc1 1.82%
CCCCOc1ccc(Cn2c(=O)oc3ccccc32)cc1 14.5%
COC(=O)c1ccc(NC(=O)c2nn(C)c3c2COc2ccccc2-3)cc1 11.6%
CCOc1ccc(OCC(=O)NCCS(=O)(=O)N2CCN(c3ccc(OC)cc3)CC2)cc1 -15.1%
Cc1ccc(NC(=O)Cn2c(=O)n(CCc3ccccc3)c(=O)c3sc4ccccc4c32)cc1C 5.68%
COc1ccccc1CNS(=O)(=O)c1cc(-c2cc(C)no2)ccc1C -31.9%
O=C(NCc1cccc(Cl)c1)c1oc(=O)c2ccccc2c1-c1ccccc1 -11.1%
